Assay results taken from the supplement of paper PMC4604168 (melanoma cell lines).
The list shows a part of the results. Many values rest on one well or one pass, so single values are uncertain.

How the values were obtained:
Assay in all cases: cell count relative to DMSO control; melanoma cells; higher = more viable cells
Conditions in all cases: library dose: standard library concentration; 72 h
[1] = test system: SkMel28
[2] = test system: SkMel2
[3] = test system: SkMel30
[4] = test system: SkMel5
[5] = test system: UACC257
[6] = test system: UACC62
[7] = test system: WM115
[8] = test system: WM1716
[9] = test system: WM1745
[10] = test system: WM3526
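Further: cells treated in 1,536-well plates, then fixed and DAPI-stained, with nuclei counted from automated high-throughput microscope images.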

| Compound | cell count [1] [%] | cell count [2] [%] | cell count [3] [%] | cell count [4] [%] | cell count [5] [%] | cell count [6] [%] | cell count [7] [%] | cell count [8] [%] | cell count [9] [%] | cell count [10] [%] |
| --- | --- | --- | --- | --- | --- | --- | --- | --- | --- | --- |
| Cc1cn(-c2cc(NC(=O)c3ccc(C)c(Nc4nccc(-c5cccnc5)n4)c3)cc(C(F)(F)F)c2)cn1 [nilotinib] + CO[C@H]1C[C@@H]2CC[C@@H](C)[C@@](O)(O2)C(=O)C(=O)N2CCCC[C@H]2C(=O)O[C@H]([C@H](C)C[C@@H]2CC[C@@H](OCCO)[C@H](OC)C2)CC(=O)[C@H](C)/C=C(\C)[C@@H](O)[C@@H](OC)C(=O)[C@H](C)C[C@H](C)/C=C/C=C/C=C/1C [everolimus] (first compound 1 µM, partner dose 0.1 µM) | 47.3 | 73.8 | 74.1 | 57.1 | 113 | 49.5 | 52.4 | 76.2 | 63.3 | 60.6 |
| CC(C)C[C@H](NC(=O)[C@H](Cc1ccccc1)NC(=O)c1cnccn1)B(O)O [Bortezomib] + Cn1nnc2c(C(N)=O)ncn2c1=O [temozolomide] (first compound 0.005 µM, partner dose 10 µM) | 34.2 | 26.1 | 24.1 | 28.5 | 65.8 | 66.7 | 29.2 | 19.1 | 15.7 | 24.1 |
| COc1ccc(C2=N[C@@H](c3ccc(Cl)cc3)[C@@H](c3ccc(Cl)cc3)N2C(=O)N2CCNC(=O)C2)c(OC(C)C)c1 [Nutlin-3] + CN(c1ncccc1CNc1nc(Nc2ccc3c(c2)CC(=O)N3)ncc1C(F)(F)F)S(C)(=O)=O [PF562271] (first compound 0.5 µM, partner dose 0.4 µM) | 40.3 | 89.4 | 99.7 | 59.5 | 76.9 | 39.9 | 56.3 | 60.3 | 72.2 | 101 |
| COc1ccc(C2=N[C@@H](c3ccc(Cl)cc3)[C@@H](c3ccc(Cl)cc3)N2C(=O)N2CCNC(=O)C2)c(OC(C)C)c1 [Nutlin-3] + C=CCn1c(=O)c2cnc(Nc3ccc(N4CCN(C)CC4)cc3)nc2n1-c1cccc(C(C)(C)O)n1 [MK1775] (first compound 0.5 µM, partner dose 0.1 µM) | 27.2 | 78.1 | 79.1 | 43.1 | 79.6 | 47.7 | 46.6 | 59.8 | 59.9 | 83.2 |
| COc1ccc(C2=N[C@@H](c3ccc(Cl)cc3)[C@@H](c3ccc(Cl)cc3)N2C(=O)N2CCNC(=O)C2)c(OC(C)C)c1 [Nutlin-3] + COc1cc(Nc2ncc(F)c(Nc3ccc4c(n3)NC(=O)C(C)(C)O4)n2)cc(OC)c1OC [Tamatinib] (first compound 0.5 µM, partner dose 2 µM) | 45.9 | 63.3 | 80.7 | 47.1 | 77.3 | 47.3 | 46.3 | 61.7 | 45 | 75.7 |
| Cc1cn(-c2cc(NC(=O)c3ccc(C)c(Nc4nccc(-c5cccnc5)n4)c3)cc(C(F)(F)F)c2)cn1 [nilotinib] + Cn1c(Nc2ccc(C(F)(F)F)cc2)nc2cc(Oc3ccnc(-c4ncc(C(F)(F)F)[nH]4)c3)ccc21 [CHIR265] (first compound 1 µM, partner dose 0.4 µM) | 35.4 | 56.4 | 82.8 | 32.2 | 80.3 | 47.1 | 38.7 | 60.8 | 42 | 41.1 |
| Cn1c(=O)n(-c2ccc(C(C)(C)C#N)cc2)c2c3cc(-c4cnc5ccccc5c4)ccc3ncc21 + COc1cc2c(Oc3ccc4[nH]c(C)cc4c3F)ncnc2cc1OCCCN1CCCC1 [cediranib] (first compound 0.02 µM, partner dose 2 µM) | 46.4 | 45.6 | 66 | 68.4 | 95.9 | 73.1 | 60.9 | 71.2 | 80.7 | 70.7 |
| Cc1cc(Nc2cc(N3CCN(C)CC3)nc(/C=C/c3ccccc3)n2)n[nH]1 + O=C(O)c1ccc2c(c1)nc(Nc1cccc(Cl)c1)c1ccncc12 [CX4945] (first compound 0.2 µM, partner dose 2 µM) | 55 | 68.6 | 70.4 | 71.8 | 74.5 | 54 | 60.7 | 84.5 | 56.3 | 55.4 |
| Cn1c(=O)n(-c2ccc(C(C)(C)C#N)cc2)c2c3cc(-c4cnc5ccccc5c4)ccc3ncc21 + NC(=O)Nc1cc(-c2cccc(F)c2)sc1C(=O)N[C@H]1CCCNC1 [AZD7762] (first compound 0.02 µM, partner dose 0.1 µM) | 24.8 | 51.4 | 67.9 | 71.5 | 94 | 62.7 | 54.9 | 70.5 | 50.8 | 53 |
| Cc1cc(Nc2cc(N3CCN(C)CC3)nc(/C=C/c3ccccc3)n2)n[nH]1 + CCCCCCCCCCCC1=C(O)C(=O)C=C(O)C1=O [Embelin] (first compound 0.2 µM, partner dose 6 µM) | 40.8 | 93 | 84.3 | 91.8 | 83.3 | 74.8 | 93.7 | 85.3 |  | 93.3 |
| CC(C)C[C@H](NC(=O)[C@H](Cc1ccccc1)NC(=O)c1cnccn1)B(O)O [Bortezomib] + CCCCCCCCCCCC1=C(O)C(=O)C=C(O)C1=O [Embelin] (first compound 0.005 µM, partner dose 6 µM) | 74.6 | 88.2 | 102 | 106 | 85.8 | 80.3 | 99.2 | 48.1 |  | 105 |
| Cc1cc(Nc2cc(N3CCN(C)CC3)nc(/C=C/c3ccccc3)n2)n[nH]1 + Cc1cc([N+](=O)[O-])ccc1NS(=O)(=O)c1cc(Cl)ccc1Cl [FH535] (first compound 0.2 µM, partner dose 5 µM) | 43.2 | 82.3 | 87.3 | 62.6 | 71.8 | 69.8 | 69.1 | 67.7 |  | 75.1 |
| CC(C)C[C@H](NC(=O)[C@H](Cc1ccccc1)NC(=O)c1cnccn1)B(O)O [Bortezomib] + Oc1nc(-c2ccc(C(F)(F)F)cc2)nc2c1CSCC2 [XAV939] (first compound 0.005 µM, partner dose 10 µM) | 68.7 | 88.7 | 97.3 | 68.2 | 83.3 | 75.7 | 82.5 | 20 |  | 62 |
| Cn1c(=O)n(-c2ccc(C(C)(C)C#N)cc2)c2c3cc(-c4cnc5ccccc5c4)ccc3ncc21 + Cn1cc(/C=C2\C(=O)Nc3cccnc32)c2ccccc21 [GW441756] (first compound 0.02 µM, partner dose 2 µM) | 70.7 | 74.3 | 84.6 | 71.4 | 88.3 | 87.3 | 80.5 | 103 |  | 79.7 |
| CC(C)C[C@H](NC(=O)[C@H](Cc1ccccc1)NC(=O)c1cnccn1)B(O)O [Bortezomib] + CC(C)CCN1c2nc(Nc3cc(F)c(O)c(F)c3)ncc2N(C)C(=O)C1C [BID1870] (first compound 0.005 µM, partner dose 1 µM) | 28.2 | 49.5 | 32.5 | 32.2 | 78.8 | 71.3 | 29.7 | 20.7 |  | 21.4 |
| Cc1cc(Nc2cc(N3CCN(C)CC3)nc(/C=C/c3ccccc3)n2)n[nH]1 + CC(C)CCN1c2nc(Nc3cc(F)c(O)c(F)c3)ncc2N(C)C(=O)C1C [BID1870] (first compound 0.2 µM, partner dose 1 µM) | 53.6 | 76.6 | 75 | 65.5 | 78.5 | 70.9 | 67.2 | 55.9 |  | 87.5 |
| CC(C)C[C@H](NC(=O)[C@H](Cc1ccccc1)NC(=O)c1cnccn1)B(O)O [Bortezomib] + N#Cc1c(O)c2c(-c3ccc(-c4ccccc4O)cc3)csc2[nH]c1=O [A769662] (first compound 0.005 µM, partner dose 10 µM) | 27.7 | 38.5 | 31.7 | 26.5 | 83.1 | 61.5 | 15.5 | 17.9 |  | 24.2 |
| Cc1cc(Nc2cc(N3CCN(C)CC3)nc(/C=C/c3ccccc3)n2)n[nH]1 + COc1ccc2c(c1)CCC1C2CCC2(C)C(NCCCCCCN3C(=O)C=CC3=O)CCC12 [U73122] (first compound 0.2 µM, partner dose 2 µM) | 47.1 | 83.7 | 67.2 | 78.6 | 73.6 | 62.6 | 60.1 | 69.1 |  | 81.6 |
| Cc1cn(-c2cc(NC(=O)c3ccc(C)c(Nc4nccc(-c5cccnc5)n4)c3)cc(C(F)(F)F)c2)cn1 [nilotinib] + CCN(CC)CCCCNc1ncc2cc(-c3cc(OC)cc(OC)c3)c(NC(=O)NC(C)(C)C)nc2n1 [PD173074] (first compound 1 µM, partner dose 0.5 µM) | 72.1 | 98.2 | 79.2 | 56.5 | 94.3 | 88.1 | 87.8 | 116 |  | 76.3 |
| COc1ccc(C2=N[C@@H](c3ccc(Cl)cc3)[C@@H](c3ccc(Cl)cc3)N2C(=O)N2CCNC(=O)C2)c(OC(C)C)c1 [Nutlin-3] + C[C@@H](Oc1cc(-c2cnn(C3CCNCC3)c2)cnc1N)c1c(Cl)ccc(F)c1Cl [Crizotinib] (first compound 0.5 µM, partner dose 1 µM) | 46.4 | 101 | 82.9 | 66.2 | 60.1 | 50.4 | 51.9 | 57 | 60.5 | 104 |
